Where two headings read alike, the source gives them in different places. No constants are given. Whether binding was seen depends on the method and setting. Binding seen in cells or lysates may run through a third protein. Some entries that bind do so weakly or less than the wild type. For some of these results: Tags and fused reporters may be left off the sequences shown.

The chains behind the UniProt entries cited, without tags or fusion partners. Where a name states a change or a piece, a line headed by the entry shows the natural chain unless it says otherwise.
UniProt P12956: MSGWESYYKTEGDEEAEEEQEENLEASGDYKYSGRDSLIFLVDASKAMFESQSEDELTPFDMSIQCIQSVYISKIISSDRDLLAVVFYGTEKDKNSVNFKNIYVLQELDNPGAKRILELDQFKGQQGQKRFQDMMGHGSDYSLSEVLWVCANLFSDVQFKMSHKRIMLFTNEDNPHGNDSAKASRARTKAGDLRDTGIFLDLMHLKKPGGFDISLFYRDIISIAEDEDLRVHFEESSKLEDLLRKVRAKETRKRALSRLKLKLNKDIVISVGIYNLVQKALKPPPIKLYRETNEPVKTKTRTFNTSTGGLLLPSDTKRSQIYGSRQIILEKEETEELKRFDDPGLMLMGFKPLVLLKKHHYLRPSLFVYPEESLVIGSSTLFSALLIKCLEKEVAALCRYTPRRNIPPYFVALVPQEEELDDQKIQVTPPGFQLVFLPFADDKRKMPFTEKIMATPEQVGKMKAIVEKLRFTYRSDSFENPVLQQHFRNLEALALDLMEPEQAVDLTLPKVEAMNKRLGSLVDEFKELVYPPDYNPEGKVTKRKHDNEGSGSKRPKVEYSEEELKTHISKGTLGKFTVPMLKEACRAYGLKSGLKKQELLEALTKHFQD
UniProt P23475: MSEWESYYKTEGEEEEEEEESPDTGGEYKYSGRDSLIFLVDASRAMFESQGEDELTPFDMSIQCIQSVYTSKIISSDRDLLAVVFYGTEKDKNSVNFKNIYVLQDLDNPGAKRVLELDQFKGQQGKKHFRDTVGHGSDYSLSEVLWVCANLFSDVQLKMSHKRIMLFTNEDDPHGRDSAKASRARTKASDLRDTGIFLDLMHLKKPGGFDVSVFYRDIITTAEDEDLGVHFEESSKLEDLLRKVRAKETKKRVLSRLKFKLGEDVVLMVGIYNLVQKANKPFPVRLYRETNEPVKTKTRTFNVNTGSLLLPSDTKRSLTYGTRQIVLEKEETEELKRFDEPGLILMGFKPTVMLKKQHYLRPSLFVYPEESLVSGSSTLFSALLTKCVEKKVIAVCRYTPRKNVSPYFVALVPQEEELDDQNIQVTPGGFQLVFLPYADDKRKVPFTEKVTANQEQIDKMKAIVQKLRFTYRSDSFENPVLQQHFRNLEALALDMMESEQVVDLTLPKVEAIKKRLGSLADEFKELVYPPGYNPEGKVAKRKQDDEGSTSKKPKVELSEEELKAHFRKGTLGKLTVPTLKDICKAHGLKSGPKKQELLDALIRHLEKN

In test [1] the target is Flag-Ku70 (UniProt P12956). In words: co-IP; HEK293T cotransfected with Flag- and Myc-tagged plasmids; RIPA lysate; IP with anti-Flag antibody plus protein A/G beads at 4°C; Western blot. On the technique in general: A western blot detects proteins with antibodies after separation by electrophoresis.
Test [2] addresses FOXP3, endogenous in human iTregs (human (endogenous in iTregs)) (UniProt Q9BZS1). Nature of the test: co-IP; endogenous IPs with anti-Ku70 or anti-FOXP3 antibody in human iTregs induced in vitro; Western blot.
For test [3], the target named is T1, Foxp3, endogenous in mouse iTregs (mouse (endogenous in iTregs)) (UniProt Q99JB6).
T1 sequence: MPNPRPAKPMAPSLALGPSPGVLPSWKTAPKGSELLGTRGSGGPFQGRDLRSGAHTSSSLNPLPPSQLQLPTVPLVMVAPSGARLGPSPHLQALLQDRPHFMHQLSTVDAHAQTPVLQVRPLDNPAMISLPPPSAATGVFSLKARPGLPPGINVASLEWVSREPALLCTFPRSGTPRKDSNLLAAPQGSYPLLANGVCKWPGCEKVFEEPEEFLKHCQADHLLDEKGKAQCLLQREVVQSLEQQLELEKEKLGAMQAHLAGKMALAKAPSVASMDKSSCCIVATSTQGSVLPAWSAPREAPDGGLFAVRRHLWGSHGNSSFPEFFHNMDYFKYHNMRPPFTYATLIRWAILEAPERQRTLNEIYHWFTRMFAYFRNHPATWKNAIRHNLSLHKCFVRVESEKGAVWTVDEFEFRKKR
In words: co-IP; endogenous IPs with anti-Foxp3 or IgG antibody in mouse iTregs (from WT or cKO mice) after 5 days of induced differentiation; Western blot.

Test [4] addresses Flag-FOXP3 (UniProt Q9BZS1). Nature of the test: co-IP; HEK293T cotransfected with Flag- and Myc-tagged plasmids; RIPA lysate; IP with anti-Flag antibody plus protein A/G beads at 4°C; Western blot.
The target in test [5] is Flag-FOXP3 (UniProt Q9BZS1). In words: co-IP; HEK293T cotransfected with Flag-FOXP3/Myc-Ku70; DNase I (10 U) added to the lysate; IP with anti-FLAG antibody; Western blot.
In test [6] the target is Flag-Ku70 (UniProt P12956). Nature of the test: co-IP; HEK293T cotransfected with Flag- and Myc-tagged plasmids; RIPA lysate; IP with anti-Flag antibody plus protein A/G beads at 4°C; Western blot. The source holds these as a separate data set.

For the molecule “FOXP3-C2 (238–431 aa), Myc-tagged (from UniProt Q9BZS1 238-431) (domain or fragment)”, the binding entry in test [1] is “no binding”. Consider “Ku70, endogenous in human iTregs (from UniProt P12956 1-609)”, for which the binding entry in test [2] is on record as “binds”. “Ku70, endogenous in mouse iTregs (from UniProt P23475 1-608)”: the binding result in test [3] is on record as “binds”. In the case of “Ku70-C1 (amino acids 351–609), Myc-tagged (from UniProt P12956 351-609) (domain or fragment)”, in test [4], the binding entry is on record as “binds”.

Turning to “Ku70-C2 (amino acids 500–609), Myc-tagged (from UniProt P12956 500-609) (domain or fragment)”, the binding result in test [4] is on record as “no binding”. The same measure, in the same setting: in the case of “Ku70-N1 (amino acids 1–500), Myc-tagged (from UniProt P12956 1-500) (domain or fragment)” it was “binds”. Same read-out and setting: in the case of “Ku70-N2 (amino acids 1–351), Myc-tagged (from UniProt P12956 1-351) (domain or fragment)” it was “no binding”. Turning to “Myc-Ku70 full-length (WT) (from UniProt P12956 1-609)”, the binding result in test [5] and in test [4] was “binds” each time.

B1: FOXP3-C1 (268–431 aa), Myc-tagged (domain or fragment, UniProt Q9BZS1 268-431)
chain: KASSVASSDKGSCCIVAAGSQGPVVPAWSGPREAPDSLFAVRRHLWGSHGNSTFPEFLHNMDYFKFHNMRPPFTYATLIRWAILEAPEKQRTLNEIYHWFTRMFAFFRNHPATWKNAIRHNLSLHKCFVRVESEKGAVWTVDELEFRKKRSQRPSRCSNPTPGP
As to B1, in test [6], the binding entry was “no binding”.

The values above are taken from article PMC11601948.
